From publication PMC4336329 (PLoS ONE, 2015) come the findings set out here.

Structures are written as SMILES. About 2,200 (0.71%) of roughly 310,000 compounds showed an effect of 50% or more. The effect is printed as a negative number. Some of the results follow.

Chain of human ether-à-go-go-related gene (hERG) potassium channel (Q12809 whole entry, looked up): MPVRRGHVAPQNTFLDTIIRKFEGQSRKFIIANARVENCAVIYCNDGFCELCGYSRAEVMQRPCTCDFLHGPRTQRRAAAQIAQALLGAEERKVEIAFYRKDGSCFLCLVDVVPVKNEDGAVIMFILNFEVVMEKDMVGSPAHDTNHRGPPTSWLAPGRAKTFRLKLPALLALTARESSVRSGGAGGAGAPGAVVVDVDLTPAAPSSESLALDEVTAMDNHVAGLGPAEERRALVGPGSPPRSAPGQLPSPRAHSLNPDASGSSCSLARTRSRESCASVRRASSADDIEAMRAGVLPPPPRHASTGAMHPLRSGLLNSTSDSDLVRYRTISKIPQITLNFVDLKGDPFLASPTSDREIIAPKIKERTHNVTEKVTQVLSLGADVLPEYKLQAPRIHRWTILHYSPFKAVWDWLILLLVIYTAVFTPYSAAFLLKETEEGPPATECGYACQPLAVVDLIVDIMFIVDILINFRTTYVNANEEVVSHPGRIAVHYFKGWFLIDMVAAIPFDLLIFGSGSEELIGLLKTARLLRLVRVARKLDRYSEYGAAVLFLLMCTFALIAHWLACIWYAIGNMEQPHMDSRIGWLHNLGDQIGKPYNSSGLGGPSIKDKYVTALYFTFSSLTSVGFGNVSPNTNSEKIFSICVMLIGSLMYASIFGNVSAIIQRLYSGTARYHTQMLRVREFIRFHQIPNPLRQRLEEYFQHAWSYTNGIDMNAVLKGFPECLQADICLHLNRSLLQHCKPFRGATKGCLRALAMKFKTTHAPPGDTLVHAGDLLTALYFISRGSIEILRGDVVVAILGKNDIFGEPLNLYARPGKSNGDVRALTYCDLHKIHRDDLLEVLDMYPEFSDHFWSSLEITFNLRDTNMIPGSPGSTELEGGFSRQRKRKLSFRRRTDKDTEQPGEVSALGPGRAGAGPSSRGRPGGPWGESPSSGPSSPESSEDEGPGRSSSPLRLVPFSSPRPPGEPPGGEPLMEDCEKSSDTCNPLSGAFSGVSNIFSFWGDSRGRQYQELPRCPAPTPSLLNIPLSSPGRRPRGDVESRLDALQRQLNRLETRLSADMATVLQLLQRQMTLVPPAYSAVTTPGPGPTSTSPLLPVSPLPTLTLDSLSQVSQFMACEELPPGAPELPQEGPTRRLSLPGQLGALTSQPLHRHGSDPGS

The experiment concerns the target human ether-à-go-go-related gene (hERG) potassium channel (human, UniProt Q12809). The experiment can be described thus: primary screen, population patch clamp on CHO cells stably expressing hERG.
As for `Cc1ccc(S(=O)(=O)N2CCN(C(=O)c3cc4c(s3)CCCC4)CC2)cc1`, the “hERG current change (%, negative = inhibition) at 1uM” value was determined as 4.24%. Regarding `O=C(O)CC1S/C(=N/N=C/C2CC=CCC2)NC1=O` (stereo not shown), the “hERG current change (%, negative = inhibition) at 1uM” value is given as 9.66%. In the case of `Cc1ccc(N2C(N)=C(C#N)C(c3cccnc3)C3=C2CC(C)(C)CC3=O)cc1` (stereo not shown), the “hERG current change (%, negative = inhibition) at 1uM” value is 10.9%. `COCCC(=O)N1CCC(Oc2ccc(C(=O)N3C[C@H]4CC[C@H]3C4)cc2)CC1`: the “hERG current change (%, negative = inhibition) at 1uM” value was 16.2%. Take `COc1ccc(NC(=O)CSc2nnc3ccc(-c4cccnc4)nn23)cc1`: the “hERG current change (%, negative = inhibition) at 1uM” value is -9.61%. Take `Cc1cc(-c2nc3ncccc3o2)ccc1NC(=O)CC(C)C`: the “hERG current change (%, negative = inhibition) at 1uM” value is listed as -4.93%. On to `O=C(Nc1ccccc1)C1=C[C@@H](c2ccc(C(F)(F)F)cc2)C[C@@H](OCCCCO)O1`, for which the “hERG current change (%, negative = inhibition) at 1uM” value was 15.3%. As for `Nc1nc(-c2ccc(Cl)cc2)nnc1-c1ccc(Br)cc1`, the “hERG current change (%, negative = inhibition) at 1uM” value is 24.8%.

As for `CCNc1nc(NCC)nc(N2CC(=O)N(CC(=O)OCC)C2=N)n1`, the “hERG current change (%, negative = inhibition) at 1uM” value came out at 7.16%. For the compound `O=C(CN1C(=O)COc2ccccc21)N1CCc2ccccc2C1`, the “hERG current change (%, negative = inhibition) at 1uM” value was determined as 8.14%.

`CC1(C)C([N+](=O)[O-])C(c2ccc(O)cc2)NC(c2ccc(O)cc2)C1[N+](=O)[O-]` (stereo not shown): the “hERG current change (%, negative = inhibition) at 1uM” value was found to be 10.3%. As to `CSc1nc(Oc2ccc(F)cc2F)cc(C(F)(F)F)n1`, the “hERG current change (%, negative = inhibition) at 1uM” value was found to be 16.9%. Next, `CC(=NCCC1=CCCCC1)c1c(O)n(C)c(=O)n(C)c1=O`: 3.33%; `O=C1NC(=S)/C(=C\c2ccc(-c3ccccc3Cl)o2)S1`: 17.2%; `Cc1ccc(C)c2nc(SCC(=O)Nc3ccc4c(c3)OCO4)c(C#N)cc12`: 14.2%. Next, `CCOc1ccccc1NC(=O)CSc1nnc(Cc2ccc(OC)cc2)c(=O)n1N`: -13.3%; `O=C(CCCCCN1C(=O)[C@@H]2Cc3ccccc3CN2C1=O)N[C@@H](Cc1ccc(O)cc1)C(=O)O`: 4.22%. With `CCCn1nnnc1NCc1ccc(N2CCCC2)cc1`, the “hERG current change (%, negative = inhibition) at 1uM” value is -1.22%.

`CCOc1ccc(CCNS(=O)(=O)c2c(C)nc3scc(C)n3c2=O)cc1OCC`: the “hERG current change (%, negative = inhibition) at 1uM” value is given as -5.56%.

Consider `Cn1c(N)c(C(=O)COC(=O)C2CCC(C(C)(C)C)CC2)c(=O)n(C)c1=O` (stereo not shown), for which the “hERG current change (%, negative = inhibition) at 1uM” value amounted to 8.69%. As to `Cc1cc(C)c(S(C)(=O)=O)c(N(C)NC(=O)c2c(F)cccc2F)n1`, the “hERG current change (%, negative = inhibition) at 1uM” value was found to be 18.6%. Turning to `O=c1[nH]cccc1-c1nc2ccccc2n1Cc1cccc(F)c1`, the “hERG current change (%, negative = inhibition) at 1uM” value was -0.764%. Regarding `CCCNC(=O)Cn1nc(C)n2c(cc3cc(F)ccc32)c1=O`, the “hERG current change (%, negative = inhibition) at 1uM” value came out at 16.3%. As for `N#CCC(CNc1ncc(C(F)(F)F)cc1Cl)OC(=O)c1ccc(Cl)cc1Cl` (stereo not shown), the “hERG current change (%, negative = inhibition) at 1uM” value was 11.1%. As for `Cc1sc2ncnc(Sc3ccccc3C(=O)O)c2c1C`, the “hERG current change (%, negative = inhibition) at 1uM” value amounted to 7.73%.

On to `O=C(NNC(=O)c1ccccc1)C(=O)N1CCCCC1`, for which the “hERG current change (%, negative = inhibition) at 1uM” value is listed as -2.99%. On to `Cc1nc(NC(=O)c2ccccc2)sc1-c1csc(NCc2ccccc2)n1`, for which the “hERG current change (%, negative = inhibition) at 1uM” value was -6.76%. For `COc1ccc(S(=O)(=O)N2CCC(C(=O)NCC3CCCO3)CC2)cc1C` (stereo not shown), the “hERG current change (%, negative = inhibition) at 1uM” value is recorded as 14.5%. As to `COc1ccccc1C/C(N)=N/OC(=O)COc1ccc(C)cc1C`, the “hERG current change (%, negative = inhibition) at 1uM” value amounted to 16.2%. In the case of `Cc1ccc(NC(=S)NCCc2ccc(Cl)cc2)c(C)c1`, the “hERG current change (%, negative = inhibition) at 1uM” value is on record as 12.4%. With `CC(C)CCOCC1CC2(CC(C)(c3csc(N)n3)OC2=O)C(=O)O1` (stereo not shown), the “hERG current change (%, negative = inhibition) at 1uM” value worked out at 9.72%. In the case of `CC(=O)NC(CCS(C)(=O)=O)C(=O)Nc1ccc2c(c1)OCO2` (stereo not shown), the “hERG current change (%, negative = inhibition) at 1uM” value is 10.7%. Take `CC(CCc1ccccc1)NC(=O)C1CCN(S(=O)(=O)c2cnc[nH]2)CC1` (stereo not shown): the “hERG current change (%, negative = inhibition) at 1uM” value was determined as 8.8%. Next, `CCN(CC)CCn1c2c(c(SCC(=O)Nc3nc(C)cs3)nc1=O)CCCC2`: -28.6%; `CCCC1Cc2nc(Cl)c(C#N)cc2CO1` (stereo not shown): 14.3%. As to `CC(=O)N1C(=O)N(C(C)=O)C2C1N(C(C)=O)C(=O)N2C(C)=O` (stereo not shown), the “hERG current change (%, negative = inhibition) at 1uM” value worked out at 5.89%. In the case of `Cc1ccccc1N1CCN(C2CCCN(C(=O)CCN3CCCCC3=O)C2)CC1` (stereo not shown), the “hERG current change (%, negative = inhibition) at 1uM” value is listed as 12.5%. For the compound `COc1cccc(Oc2ccc(C(F)(F)F)cc2N)c1`, the “hERG current change (%, negative = inhibition) at 1uM” value was determined as 12.9%. For the compound `COc1ccc(-c2nnc(SCc3cccc(C)c3)n2N)cc1`, the “hERG current change (%, negative = inhibition) at 1uM” value is 2.01%. As to `COc1ccc(N2CCN(S(=O)(=O)c3ccc(OC)c(C(=O)N4CCOCC4)c3)CC2)cc1`, the “hERG current change (%, negative = inhibition) at 1uM” value came to 1.61%. `COc1cccc(NC(=S)NC(=O)c2cncc(Br)c2)c1`: the “hERG current change (%, negative = inhibition) at 1uM” value is 7.84%. `CCOc1ccccc1N(CC(=O)NC1CCCCC1)C(=O)CCC(=O)Nc1nccs1`: the “hERG current change (%, negative = inhibition) at 1uM” value is -12%.

On to `Cc1ccnc(NC(=O)c2ccc(COc3ccc(Cl)cc3)o2)c1`, for which the “hERG current change (%, negative = inhibition) at 1uM” value was determined as 10.2%.
